Assay type in all cases: ADME, organism-based, Macaca mulatta
Data set [1] in a line: Drug level in normal rhesus monkey frontal cortex assessed as standard uptake value at 152.9 MBq, iv after 0.5 mins by microPET. Particulars: in vivo.
Data set [2] can be described thus: Drug level in normal rhesus monkey frontal cortex assessed as standard uptake value at 152.9 MBq, iv after 32.5 mins by microPET. The conditions noted are these: in vivo.
The nature of data set [3]: Drug level in normal rhesus monkey frontal cortex assessed as standard uptake value at 152.9 MBq, iv after 47.5 mins by microPET. Particulars: in vivo.
A short description of data set [4]: Drug level in normal rhesus monkey frontal cortex assessed as standard uptake value at 152.9 MBq, iv after 52.5 mins by microPET. Particulars: in vivo, 0.875 h.
The nature of data set [5]: Drug level in normal rhesus monkey frontal cortex assessed as standard uptake value at 152.9 MBq, iv after 75 mins by microPET. The conditions noted are these: in vivo, 1.25 h.
The nature of data set [6]: Drug level in normal rhesus monkey white matter assessed as standard uptake value at 152.9 MBq, iv after 10 mins by microPET. Particulars: in vivo.
A short description of data set [7]: Drug level in normal rhesus monkey white matter assessed as standard uptake value at 152.9 MBq, iv after 65 mins by microPET. Particulars: in vivo.
Data set [8] is described as follows: Drug level in normal rhesus monkey thalamus assessed as standard uptake value at 152.9 MBq, iv after 52.5 mins by microPET. Particulars: in vivo, 0.875 h.
Data set [9] is described as follows: Drug level in normal rhesus monkey pons assessed as standard uptake value at 152.9 MBq, iv after 47.5 mins by microPET. Particulars: in vivo.
Data set [10] is described as follows: Drug level in normal rhesus monkey pons assessed as standard uptake value at 152.9 MBq, iv after 52.5 mins by microPET. The conditions noted are these: in vivo, 0.875 h.
A short description of data set [11]: Drug level in normal rhesus monkey parietal cortex assessed as standard uptake value at 152.9 MBq, iv after 1.5 mins by microPET. The conditions noted are these: in vivo, 0.025 h.
Data set [12] in a line: Drug level in normal rhesus monkey parietal cortex assessed as standard uptake value at 152.9 MBq, iv after 14 mins by microPET. Particulars: in vivo.
The nature of data set [13]: Drug level in normal rhesus monkey parietal cortex assessed as standard uptake value at 152.9 MBq, iv after 37.5 mins by microPET. The conditions noted are these: in vivo, 0.625 h.
The nature of data set [14]: Drug level in normal rhesus monkey parietal cortex assessed as standard uptake value at 152.9 MBq, iv after 85 mins by microPET. The conditions noted are these: in vivo.

Further values from the same series stand in other lists.

On to `[11CH3]Nc1ccc(-c2nc3ccc(O)cc3s2)cc1` [PITTSBURGH COMPOUND B], for which the SUV in data set [1] is given as 0.043; in data set [2], 1.06; in data set [3], 0.774; in data set [4], 0.74; in data set [5] it was 0.658; in data set [6] it was 1.564. In addition, the SUV in data set [7] is 0.867; in data set [8] it was 1.065; in data set [9] it was 1.17; in [10], 1.023; in [11], 0.467; in data set [12], 1.925. Moreover, the SUV turned out to be 0.99 in [13] and 0.596 in [14].
